About 120 (0.25%) of roughly 48,000 compounds were called active. About 4% were inconclusive and are not listed. Calls come from the whole dose curve; as a rule, active = well fitted activation curve with a large enough effect; inconclusive = small, poorly fitted or top-dose-only effect, or another doubt; inactive = no such curve, though single readings can be large or run the other way. The list shows a part of the results.
Experiment: Primary qHTS for Identification of Small Molecule Activators of Huntingtin-Antisense Promoter Activity; note: nearly all actives have a fitted effect of over 55% in size
Details: HEK293 HTT-AS promoter firefly luciferase reporter, 24 h; series mostly up to 57.5 µM; activity change, positive = activation: at the top concentration
Outline: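 HEK293 cells carrying firefly luciferase reporters were seeded at 2,500 per well in Opti-MEM and cultured for 24 h. They were then treated with compounds at up to 57.5 uM final for 24 h at 37 degrees C before Dual-Glo luminescence readout.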

Activity change, positive = activation, inactive:
NC(=O)c1c(NC(=O)CS(=O)(=O)c2ccc(Cl)cc2)sc2c1CCCCC2 -13.1%
Cc1ccc(Nc2c(-c3ccc(Br)o3)nc3ccccn23)cc1 -6.45%
COc1ccc(S(=O)(=O)NCc2nc3nc(C)cc(C)n3n2)cc1 -6.85%
Cc1ccc(Cl)cc1N1CCN(C(=O)Cn2ncc3c4ccccc4n(C)c3c2=O)CC1 -8.8%
CCC(=O)Oc1c(Sc2ccc(Cl)cc2)c(C)nn1-c1ccccc1 -28.8%
Cc1ccc(-c2nc(CS(=O)(=O)CC(=O)Nc3ccc(Br)cc3F)c(C)o2)cc1 -7.49%
O=C(NCCCN1CCN(c2cccc(Cl)c2)CC1)c1sc2ncccc2c1-n1cccc1 -26.4%
Cc1cc(Cl)ccc1NS(=O)(=O)c1c(C(=O)N2CCC(C)CC2)c(C)n(C)c1C -26.8%
CC1CCCN(c2nc3c(-c4ccc(Cl)cc4)nnn3c3ccccc23)C1 (centres undefined) -6.52%
Cc1cc(C=c2sc3nc4ccccc4n3c2=O)c(C)n1-c1ccccc1 -83.5%
Cc1ccc(-c2csc(-c3cc4c([nH]c3=O)CC(c3ccccc3)CC4=O)n2)cc1 (centres undefined) -39.4%
COc1ccc2oc(=O)c(-c3nnc(-c4ccc(C)cc4)o3)cc2c1 -19.4%
CCN(CC)S(=O)(=O)c1ccc2c(c1)N(CC(=O)NCc1ccccc1)C(=O)C1CCCCN21 (centres undefined) -12.8%
Cc1cc2c(cc1S(=O)(=O)Nc1ccc(OC(F)(F)F)cc1)OCC(=O)N2 -36.8%
O=C(CCC(=O)c1ccc(F)cc1)Nc1ccc(Cl)cc1 -10.1%
CCn1cc(S(=O)(=O)c2cccc(C)c2)c(=O)c2cc(F)c(N3CCCC(C)C3)cc21 (centres undefined) -19.6%
O=C(c1ccc2c(c1)N(Cc1ccccc1F)C(=O)c1ccccc1S2(=O)=O)N1CCN(c2ccccn2)CC1 -35.4%
CCOc1ccc(CNC(=O)C2CCCCN2S(=O)(=O)c2ccc(F)cc2)cc1OC (centres undefined) -8.58%
COc1ccc(-c2nc3c(c(SC)n2)Cc2c(CO)cnc(C)c2O3)cc1 -4.33%
CCn1c(=O)c2cc(C(=O)NCCCN3CCN(C)CC3)sc2c2ccccc21 3.37%
O=C(CSc1n[nH]c(-c2ccccc2Cl)n1)NCc1ccc(F)cc1 -19.6%
CCSc1nc2n(n1)C(c1ccc(Cl)cc1Cl)C(C(=O)Nc1ccccc1C)=C(C)N2 (centres undefined) -16.8%
CCCCOc1ccc(C(=O)N(Cc2ccc(N(C)C)cc2)Cc2ccco2)cc1 -29.8%
CC(C)(C)c1ccc(-c2nc(NC(=O)CSc3ncnc4sc5c(c34)CCCC5)ns2)cc1 5.69%
Cc1ccc(-n2ncc3c(NCc4ccccc4)ncnc32)cc1Cl 0.201%
CCc1ccc(NC(=O)CSc2nccn2-c2ccc(F)cc2)cc1 -9.26%
COc1ccc(N2CC(NC(=O)/C=C\c3ccc4c(c3)OCO4)CC2=O)cc1OC (centres undefined) -13.2%
COc1ccc(NC(=O)CN(C)S(=O)(=O)c2ccc3c(c2)CCCN3C(C)=O)cc1 -15.9%
O=C(NCCc1csc(-c2cccnc2)n1)c1cccc(Cl)c1 -19.3%
Cc1ccc2ncc(C(=O)c3ccc(C)c(C)c3)c(S(=O)(=O)c3ccc(F)cc3)c2c1 -45.2%
Cc1c(C)n(CCN(C)C)c2ccc(C(=O)OCCN(C)C)cc12 -20.7%
CCOc1ccc(CC(=O)NCCc2sc3nc(-c4ccc(F)cc4)nn3c2C)cc1 -7.62%
Cc1ccccc1Cn1c(SCc2ccc(C(=O)NC3CCCCC3)cc2)nc2ccncc21 -10.4%
Cc1nc(SCc2cccc(Cl)c2)nc2c1CCCC2 6.07% [at 11.5 µM, percent change from vehicle, -100% = no light]
CC(C)N(Cc1nc(-c2ccc(Cl)cc2)no1)C(=O)c1ccc(C(C)(C)C)cc1 -17.1%
CC1=C(c2ccc(Cl)cc2)S(=O)(=O)N=C1N1CCN(c2cccc(C)c2C)CC1 -14.8%
COc1cccc(CN2C(=O)c3ccccc3Sc3ccc(C(=O)OCc4ccco4)cc32)c1 -3.86%
Cc1cccc(NC(=O)CSc2nc3ccc(NC(=O)c4ccccc4)cc3s2)c1 -17.6%
CCOc1ccc(-c2cc3nc(C4CCN(C(=O)OC(C)(C)C)CC4)c(C(=O)Nc4cccc(CC)c4)cn3n2)cc1 10.3%
CC(=O)N1c2ccc(S(=O)(=O)N3CCCCCC3)cc2CC1C(=O)NCc1cccc(C)c1 (centres undefined) 8.74%
COc1cc(NC(=O)Cn2c(=O)cc(C)c3c(C)nn(-c4ccc(C)cc4)c32)cc(OC)c1 -13.5%
Cc1ccc(CNc2nnc(C)c3nnn(Cc4ccc(F)cc4)c23)cc1 11%
CCCCOc1ccc(C(=O)Nc2ccc(-c3cc4ccccc4oc3=O)cc2)cc1 -46.7%
CC(C)(C)OC(=O)N1CCC(c2c(C(=O)NCCN3CCc4ccccc4C3)cnn2-c2ccc(F)cc2)CC1 -18.8%
CC(C)c1ccc(OCC(=O)NCCS(=O)(=O)N2CCN(c3ccc(F)cc3)CC2)cc1 6.3%
Cc1c(Cl)cccc1NC(=O)c1ccc2c(c1)CCCN2S(C)(=O)=O 11.9%
CCn1c(=O)cc(SCC(=O)NCc2cccc(Cl)c2)c2ccccc21 -34.8%
COc1ccc(Cn2c(C(=O)O)c(CNC3CCCC3)c3ccc(OC)cc32)cc1 -24%
COc1ccccc1C(=O)N1c2ncnn2C2(CCCCC2)[C@@H]2CCCC[C@@H]21 -25%
CCOC(=O)c1ccc(NC(=O)C(CC)Sc2nc3ccncc3[nH]2)cc1 (centres undefined) -14.9%
CCN1C(=O)c2ccccc2Sc2ccc(NC(=O)N3CCN(c4cc(C)ccc4C)CC3)cc21 -21%
CSc1nc(Nc2ccc(F)cc2)cc(-c2ccccc2)n1 -31.3%
Nc1ncnc2c1c(-c1cnc3[nH]ccc3c1)nn2C1CCCC1 -37.7%
CCOc1ccc(-c2nn(-c3ccccc3)cc2C2NC(=O)NC(C)=C2C(=O)OC(C)C)cc1 (centres undefined) -20%
CCc1ccccc1NC(=O)Cn1cc(S(=O)(=O)N2CCCC2)c(S(=O)(=O)N2CCCC2)c1 -4.41%
O=C(c1ccco1)N(Cc1cccnc1)c1nc2c(F)cc(F)cc2s1 -16.6%
COc1ccc2cc1Oc1ccc(cc1)C[C@H]1c3cc(c(OC)cc3CCN1C)Oc1c(OC)c(OC)cc3c1[C@H](C2)N(C)CC3 -77%
C[C@]12CC[C@@H]3c4ccc(O)cc4C[C@@H](CCCCCCCCCS(=O)CCCC(F)(F)C(F)(F)F)[C@H]3[C@@H]1CC[C@@H]2O (some centres undefined) -17.6%
COc1ccccc1NC(=O)CSc1nncn2c1cc1sccc12 -10.9%

Source: PubChem BioAssay AID1508624 (National Center for Advancing Translational Sciences (NCATS), 2021)
